This is an account of results in a collection of fitness landscapes (doi:10.1038/s41467-024-54723-y).

Over roughly 18,000 sequences, “TetR repression strength (sort-seq, GFP reporter)” has its median near 0.23; the highest 2% begin near 0.68. This is one part of the list.

The experiment addresses TetR (class B, Tn10) (UniProt P04483). The experiment can be described thus: TetR repression strength (sort-seq, GFP reporter) (relative to tetO2 = 1); higher = stronger repression. The following applies: E. coli. Put shortly: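 Repression strength was calculated by subtracting the read-weighted mean bin from the top bin index plus one and dividing by the unaltered operator's value. The plasmid library was low-copy in E. coli SIG10-MAX, with eight randomized operator positions between a constitutive promoter and sfGFP and constitutive TetR. Cultures grew 5 h at 37 °C in LB containing 50 µg/mL chloramphenicol before 10^6 cells were sorted by FACS into 13 fluorescence bins, each sequenced on Illumina. Three independent transformations were averaged for members having ≥30 reads in all replicates and a CV ≤0.5.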
Sequence of UniProt P04483 (P04483 whole entry): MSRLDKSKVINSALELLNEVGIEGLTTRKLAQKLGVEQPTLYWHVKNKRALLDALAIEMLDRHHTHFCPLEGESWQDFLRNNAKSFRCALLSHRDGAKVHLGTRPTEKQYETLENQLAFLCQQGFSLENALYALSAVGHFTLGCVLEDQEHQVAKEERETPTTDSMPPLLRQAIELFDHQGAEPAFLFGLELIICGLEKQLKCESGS
TCCCAAATAGTTAAGGAGA: the TetR repression strength came out at 0.286.
The figure for TCCCAGCGAGTATGGGAGA is 0.147.
Next, TCCCCGAGAGTCAGGGAGA: 0.45; TCCCTGCTAGTTTGAGAGA: 0.128; TCCCGACGAGTTCTCGAGA: 0.32.
The figure for TCCCCCGCAGTTTTGGAGA is 0.104; for TCCCGCTGAGTGGAGGAGA it is 0.165.
TCCCTGGAAGTGACTGAGA registered a TetR repression strength of 0.109.
The figure for TCCCCAGGAGTCTGGGAGA is 0.305.
Next, TCCCGATAAGTGGGTGAGA: 0.276; TCCCGACTAGTAACTGAGA: 0.613.
Sequence TCCCGAGGAGTCGCCGAGA gave a TetR repression strength of 0.0695.
Next, TCCCCGCCAGTTTTGGAGA: 0.0554.
Next, TCCCCTAGAGTATCTGAGA: 0.483; TCCCACATAGTGACGGAGA: 0.242; TCCCAGCCAGTTGTCGAGA: 0.231.
The figure for TCCCTCGTAGTATGCGAGA is 0.17.
For the sequence TCCCGTGCAGTATGGGAGA, the TetR repression strength came out at 0.227.
Sequence TCCCAACGAGTCGTTGAGA returned a TetR repression strength of 0.269.
Consider TCCCAATAAGTGATCGAGA, for which the TetR repression strength came to 0.42.
Next, TCCCTATCAGTGGTAGAGA: 1.01; TCCCGGAGAGTCGAGGAGA: 0.267.
Next, TCCCTTAGAGTGCGGGAGA: 0.0573.
Consider TCCCTCCGAGTTCTGGAGA, for which the TetR repression strength was determined as 0.295.
Consider TCCCTGCCAGTCTCAGAGA, for which the TetR repression strength worked out at 0.0342.
Next, TCCCGCTTAGTCGACGAGA: 0.131; TCCCGCGGAGTGGCAGAGA: 0.134.
Next, TCCCATACAGTTAGTGAGA: 0.173; TCCCACTAAGTTGCGGAGA: 0.0587.
Next, TCCCCAGTAGTGATCGAGA: 0.207.
TCCCAGGGAGTGACCGAGA: the TetR repression strength is 0.104.
Next, TCCCGGGCAGTGCAGGAGA: 0.54; TCCCACACAGTGTGTGAGA: 0.11.
The figure for TCCCTCTGAGTCATCGAGA is 0.295; for TCCCAATCAGTCGAGGAGA it is 0.202.
TCCCACCGAGTTGATGAGA showed a TetR repression strength of 0.352.
The figure for TCCCGCATAGTCCAGGAGA is 0.389.
The sequence TCCCTGTGAGTGATGGAGA gave a TetR repression strength of 0.302.
The figure for TCCCAGCCAGTACTCGAGA is 0.543; for TCCCTCATAGTGTTAGAGA it is 0.306.
The figure for TCCCTGCGAGTGACGGAGA is 0.104.
Next, TCCCCCCTAGTCGATGAGA: 0.564; TCCCCGTGAGTTCGAGAGA: 0.158.
For the sequence TCCCTCAGAGTATCGGAGA, the TetR repression strength stood at 0.279.
Next, TCCCATGAAGTAGACGAGA: 0.259; TCCCGTTAAGTGCCAGAGA: 0.207.
Next, TCCCCAACAGTGTAGGAGA: 0.174; TCCCAGTGAGTACCTGAGA: 0.33.
The figure for TCCCTTTCAGTCCCAGAGA is 0.0305; for TCCCTGACAGTAAATGAGA it is 0.317.
The sequence TCCCGTAGAGTGCAGGAGA came in with a TetR repression strength of 0.362.
The figure for TCCCCCAAAGTTGTGGAGA is 0.319.
The figure for TCCCAAAGAGTATAGGAGA is 0.304; for TCCCAAGAAGTGACCGAGA it is 0.221.
As for TCCCTGGTAGTCTGGGAGA, the TetR repression strength came out at 0.242.
The figure for TCCCGTCCAGTTGTCGAGA is 0.283.
The figure for TCCCGGCGAGTTGTCGAGA is 0.243; for TCCCGCTAAGTCAATGAGA it is 0.566; for TCCCAATGAGTTTACGAGA it is 0.325.
Sequence TCCCCACCAGTTGGGGAGA gave a TetR repression strength of 0.151.
Next, TCCCTTAGAGTGGGGGAGA: 0.0915; TCCCTGTCAGTGATTGAGA: 0.592; TCCCCGAGAGTTGGGGAGA: 0.104.
The figure for TCCCCGTCAGTCGAAGAGA is 0.207; for TCCCTGCTAGTTTCCGAGA it is 0.417; for TCCCCAGGAGTGCGGGAGA it is 0.108.
Next, TCCCCAACAGTAGAGGAGA: 0.56; TCCCGGTCAGTTTTAGAGA: 0.594; TCCCATGTAGTCAGCGAGA: 0.32.
TCCCGGCTAGTGAGTGAGA: the TetR repression strength is 0.405.
The figure for TCCCTGTGAGTTGACGAGA is 0.174; for TCCCTCGGAGTCGGGGAGA it is 0.195; for TCCCCCAAAGTTGCAGAGA it is 0.635.
The figure for TCCCTGAAAGTGGCCGAGA is 0.566.
The figure for TCCCTCTAAGTGTTCGAGA is 0.333; for TCCCCGGTAGTTGGTGAGA it is 0.23; for TCCCGGCGAGTCGCGGAGA it is 0.254.
With TCCCTGCGAGTTAAGGAGA, the TetR repression strength amounted to 0.225.
Sequence TCCCGTAAAGTCATGGAGA displayed a TetR repression strength of 0.273.
Next, TCCCGGGGAGTTCATGAGA: 0.161; TCCCGTTCAGTGGGTGAGA: 0.33; TCCCTCGAAGTTGCCGAGA: 0.0346.
Next, TCCCAGAGAGTAAATGAGA: 0.0415; TCCCAGTAAGTCCTTGAGA: 0.49; TCCCTAGTAGTGTTTGAGA: 0.311.
The figure for TCCCTGTCAGTATGAGAGA is 0.303; for TCCCCACGAGTTCAAGAGA it is 0.381.
With TCCCAGCGAGTTTGTGAGA, the TetR repression strength turned out to be 0.241.
The figure for TCCCTGGCAGTAGTAGAGA is 0.0854; for TCCCGTACAGTGCGCGAGA it is 0.318; for TCCCATGCAGTTGGGGAGA it is 0.216.
The figure for TCCCCCCCAGTTAAAGAGA is 0.311; for TCCCCCGAAGTTTCAGAGA it is 0.32; for TCCCACTCAGTTATAGAGA it is 0.661.
The figure for TCCCTTGCAGTATACGAGA is 0.35; for TCCCAATAAGTGGTAGAGA it is 0.399; for TCCCTGTGAGTGTTTGAGA it is 0.256.
TCCCTATTAGTAGGAGAGA: the TetR repression strength stood at 0.26.
The figure for TCCCAGGTAGTGACCGAGA is 0.142; for TCCCGCGTAGTGTTGGAGA it is 0.324; for TCCCATCGAGTTGAGGAGA it is 0.259.
The figure for TCCCGGGGAGTCAGAGAGA is 0.17; for TCCCTGACAGTAGGGGAGA it is 0.294; for TCCCCGTGAGTCGAGGAGA it is 0.137.
Next, TCCCAGTAAGTATGAGAGA: 0.272; TCCCTCGAAGTATCGGAGA: 0.166.
As to TCCCACAGAGTGGCGGAGA, the TetR repression strength is 0.304.
For the sequence TCCCGGTGAGTGGCCGAGA, the TetR repression strength is 0.466.
The sequence TCCCAGTCAGTCCCTGAGA returned a TetR repression strength of 0.141.
The figure for TCCCTATCAGTCATCGAGA is 0.747; for TCCCGACCAGTTTCGGAGA it is 0.0546; for TCCCTCCTAGTGTTCGAGA it is 0.514.
Next, TCCCCGGGAGTGTCAGAGA: 0.0679; TCCCTCATAGTGGAGGAGA: 0.16.
TCCCAACGAGTTAAAGAGA yielded a TetR repression strength of 0.278.
TCCCTCCAAGTTTGTGAGA registered a TetR repression strength of 0.28.
Next, TCCCCCCGAGTAACGGAGA: 0.153; TCCCGAAGAGTGCGAGAGA: 0.245.
Take TCCCGAAAAGTACAAGAGA: the TetR repression strength amounted to 0.349.
Next, TCCCGGTGAGTAAACGAGA: 0.0592; TCCCATGGAGTAGGGGAGA: 0.12; TCCCGAACAGTTACGGAGA: 0.202.
Next, TCCCCACCAGTGGACGAGA: 0.135; TCCCAGATAGTGCTTGAGA: 0.0333; TCCCTTTCAGTATTCGAGA: 0.394.
The figure for TCCCGTGCAGTTGGTGAGA is 0.238; for TCCCAACAAGTTCATGAGA it is 0.195; for TCCCGCCCAGTCATGGAGA it is 0.284.
With TCCCATGTAGTAACAGAGA, the TetR repression strength came out at 0.175.
In turn, TCCCCGTGAGTGCTGGAGA had a TetR repression strength of 0.102.
